# Experimental data reported in patent US20220056094A1 (JIANGSU HENGRUI MEDICINE, published 2022).
# Where two headings read alike, the source gives them in different places.
# T1: high-affinity receptor IL-2Rα/β/γ on CTLL2 cells (mouse-derived cell line) (mouse, UniProt P01590 22-268; P16297 27-539; P34902 23-369)
# T1 sequence (looked up) 1: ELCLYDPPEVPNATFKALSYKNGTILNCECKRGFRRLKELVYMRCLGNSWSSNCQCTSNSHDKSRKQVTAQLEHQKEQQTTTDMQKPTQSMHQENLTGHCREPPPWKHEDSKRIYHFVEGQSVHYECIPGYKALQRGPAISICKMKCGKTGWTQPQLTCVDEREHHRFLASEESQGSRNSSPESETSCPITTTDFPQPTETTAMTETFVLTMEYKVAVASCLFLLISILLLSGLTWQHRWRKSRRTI
# T1 sequence (looked up) 2: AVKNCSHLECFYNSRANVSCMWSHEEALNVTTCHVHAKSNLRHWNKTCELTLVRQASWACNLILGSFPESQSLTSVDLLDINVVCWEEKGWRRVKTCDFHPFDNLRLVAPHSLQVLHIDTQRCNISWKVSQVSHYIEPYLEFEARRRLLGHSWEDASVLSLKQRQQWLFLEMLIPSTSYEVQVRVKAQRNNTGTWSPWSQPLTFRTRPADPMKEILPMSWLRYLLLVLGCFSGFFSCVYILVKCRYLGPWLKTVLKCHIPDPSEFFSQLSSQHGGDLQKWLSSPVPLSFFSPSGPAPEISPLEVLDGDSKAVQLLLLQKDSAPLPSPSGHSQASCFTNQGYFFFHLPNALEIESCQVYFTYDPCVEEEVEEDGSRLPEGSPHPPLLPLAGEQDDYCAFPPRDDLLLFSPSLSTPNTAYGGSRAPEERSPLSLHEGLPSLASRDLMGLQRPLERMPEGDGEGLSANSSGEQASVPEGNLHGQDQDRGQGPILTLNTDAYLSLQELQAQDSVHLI
# T1 sequence (looked up) 3: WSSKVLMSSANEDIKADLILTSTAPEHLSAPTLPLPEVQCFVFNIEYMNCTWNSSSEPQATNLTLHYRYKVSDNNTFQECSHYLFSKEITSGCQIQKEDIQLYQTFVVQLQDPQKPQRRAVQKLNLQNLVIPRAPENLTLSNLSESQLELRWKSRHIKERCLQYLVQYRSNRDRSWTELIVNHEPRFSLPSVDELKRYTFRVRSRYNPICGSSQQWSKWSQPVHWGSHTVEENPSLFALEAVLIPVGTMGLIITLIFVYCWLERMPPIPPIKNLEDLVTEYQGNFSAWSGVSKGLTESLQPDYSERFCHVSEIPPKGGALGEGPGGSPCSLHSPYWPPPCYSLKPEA
# T2: medium-affinity receptor IL-2Rβ/γ on human cells (Mo7e cell line; human CD8+T and NK cells) (human, UniProt P14784 27-551; P31785 23-369)
# T2 sequence (looked up) 1: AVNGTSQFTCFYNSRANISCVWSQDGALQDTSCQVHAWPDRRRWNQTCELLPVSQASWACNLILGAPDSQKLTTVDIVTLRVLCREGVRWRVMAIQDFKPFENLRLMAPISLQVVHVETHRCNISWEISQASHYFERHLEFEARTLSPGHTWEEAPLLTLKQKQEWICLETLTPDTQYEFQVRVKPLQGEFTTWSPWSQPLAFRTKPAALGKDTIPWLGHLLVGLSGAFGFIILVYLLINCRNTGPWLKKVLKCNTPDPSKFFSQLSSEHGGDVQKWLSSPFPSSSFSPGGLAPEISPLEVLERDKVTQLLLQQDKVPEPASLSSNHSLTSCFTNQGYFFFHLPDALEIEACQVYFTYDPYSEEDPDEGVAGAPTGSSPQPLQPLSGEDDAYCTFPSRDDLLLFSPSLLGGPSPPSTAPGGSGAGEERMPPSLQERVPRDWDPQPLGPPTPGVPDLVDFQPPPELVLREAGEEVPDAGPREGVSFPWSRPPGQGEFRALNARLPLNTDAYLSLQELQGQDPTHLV
# T2 sequence (looked up) 2: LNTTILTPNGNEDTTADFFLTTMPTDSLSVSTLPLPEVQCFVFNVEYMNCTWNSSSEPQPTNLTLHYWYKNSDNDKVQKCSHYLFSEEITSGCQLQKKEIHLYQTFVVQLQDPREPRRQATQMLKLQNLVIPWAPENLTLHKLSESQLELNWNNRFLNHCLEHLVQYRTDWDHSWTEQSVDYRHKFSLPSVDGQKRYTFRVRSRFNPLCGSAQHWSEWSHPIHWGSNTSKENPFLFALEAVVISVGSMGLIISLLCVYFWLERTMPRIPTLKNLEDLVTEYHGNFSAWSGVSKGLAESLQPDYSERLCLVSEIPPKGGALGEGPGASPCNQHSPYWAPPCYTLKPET
# T3: IL-2 receptor IL-2Rα/β/γ on human peripheral blood Treg cells (human, UniProt P01589 22-272; P14784 27-551; P31785 23-369)
# T3 sequence (looked up) 1: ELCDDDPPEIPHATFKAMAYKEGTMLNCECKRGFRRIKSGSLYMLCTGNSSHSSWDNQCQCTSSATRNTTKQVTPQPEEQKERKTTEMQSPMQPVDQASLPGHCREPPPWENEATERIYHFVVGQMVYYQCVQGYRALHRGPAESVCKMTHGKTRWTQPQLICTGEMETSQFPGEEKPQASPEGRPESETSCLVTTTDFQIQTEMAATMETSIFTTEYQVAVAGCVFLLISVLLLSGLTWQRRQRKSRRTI
# T3 sequence (looked up) 2: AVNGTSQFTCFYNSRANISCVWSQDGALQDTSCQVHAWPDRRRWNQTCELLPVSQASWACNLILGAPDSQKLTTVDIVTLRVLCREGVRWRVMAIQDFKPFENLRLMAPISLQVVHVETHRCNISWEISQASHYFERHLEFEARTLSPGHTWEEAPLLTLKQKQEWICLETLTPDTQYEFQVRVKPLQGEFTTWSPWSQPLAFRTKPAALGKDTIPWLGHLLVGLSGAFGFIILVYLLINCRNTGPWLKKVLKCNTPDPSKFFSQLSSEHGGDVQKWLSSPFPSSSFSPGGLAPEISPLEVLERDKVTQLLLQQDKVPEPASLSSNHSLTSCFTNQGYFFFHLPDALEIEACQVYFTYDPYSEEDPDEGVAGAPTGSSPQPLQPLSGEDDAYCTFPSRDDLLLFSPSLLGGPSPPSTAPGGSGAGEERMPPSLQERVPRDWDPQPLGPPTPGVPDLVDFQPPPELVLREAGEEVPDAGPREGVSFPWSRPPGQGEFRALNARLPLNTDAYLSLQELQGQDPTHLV
# T3 sequence (looked up) 3: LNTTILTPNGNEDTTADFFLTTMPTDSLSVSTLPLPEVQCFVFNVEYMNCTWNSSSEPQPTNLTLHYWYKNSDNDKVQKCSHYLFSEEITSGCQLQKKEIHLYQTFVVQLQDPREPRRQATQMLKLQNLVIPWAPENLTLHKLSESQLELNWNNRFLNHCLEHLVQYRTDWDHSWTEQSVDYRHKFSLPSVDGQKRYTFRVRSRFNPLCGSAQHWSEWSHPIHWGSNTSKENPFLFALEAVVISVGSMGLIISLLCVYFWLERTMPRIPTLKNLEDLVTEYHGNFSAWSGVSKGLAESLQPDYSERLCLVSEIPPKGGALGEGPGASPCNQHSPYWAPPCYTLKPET
# T4: his-tagged human IL-2Rα recombinant protein (SinoBiological, Cat #10165-H08H) (human, UniProt P01589 22-213)
# T4 construct: Bought protein; also called IL-2Rα (His Tag)
# T4 sequence: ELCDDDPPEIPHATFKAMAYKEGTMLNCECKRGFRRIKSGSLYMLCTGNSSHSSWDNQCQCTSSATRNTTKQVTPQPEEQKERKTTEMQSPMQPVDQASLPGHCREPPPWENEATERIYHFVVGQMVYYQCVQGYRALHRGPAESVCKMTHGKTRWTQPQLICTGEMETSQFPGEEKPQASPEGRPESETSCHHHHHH
# B1: wild type human IL-2 (ligand)
# chain: not shown
# notes: Carries C125, whereas the variants carry C125A; also called IL-2-WT; IL-2 (WT)
# Legend:
# [1] = biological target: T1, high-affinity receptor IL-2Rα/β/γ on …; assay: cell-based or functional assay
# [2] = biological target: T1, high-affinity receptor IL-2Rα/β/γ on …; assay: cell-based or functional assay; remark: listed apart in the source
# [3] = biological target: T2, medium-affinity receptor IL-2Rβ/γ on …; assay: cell-based or functional assay
# [4] = biological target: T1, high-affinity receptor IL-2Rα/β/γ on …; assay: cell-based or functional assay; remark: listed apart in the source
# [5] = biological target: T3, IL-2 receptor IL-2Rα/β/γ on human …; assay: cell-based or functional assay
# [6] = biological target: T2, medium-affinity receptor IL-2Rβ/γ on …; assay: cell-based or functional assay; remark: listed apart in the source
# [7] = biological target: T2, medium-affinity receptor IL-2Rβ/γ on …; assay: cell-based or functional assay; remark: listed apart in the source
# [8] = biological target: T4, his-tagged human IL-2Rα recombinant …; assay: ELISA, his-tagged IL-2Rα coated, HRP anti-IL-2 polyclonal detection
# Protocol: 96-well microtiter plate was coated with 2 μg/mL his-tagged IL-2Rα recombinant protein (SinoBiological, Cat #10165-H08H), and incubated overnight at 4° C. The plate was washed with washing solution for three times, 250 μl per well. For each time of washing, the plate was shaken for 10 seconds to ensure sufficient washing. 200 μl/well blocking solution was added and incubated at room temperature for 2 hours. The plate was washed with washing solution for three times, 250 μl per well. For each time of washing, the plate was shaken for 10 seconds to ensure sufficient washing. […] The plate was incubated for 1 hour at room temperature. The plate was washed with washing solution for three times, 250 μl per well. […] The plate was incubated for 1 hour at room temperature. The plate was washed with washing solution for three times, 250 μl per well. 100 μl TMB was added to each well, and the reaction was performed for 15 minutes in the dark. 50 μl of 0.16 M sulfuric acid was added to each well.
# [9] = biological target: T4, his-tagged human IL-2Rα recombinant …; assay: BLI (Octet RED96e), His-tagged IL-2Rα on HIS1K sensor; column printed as 'affinity (nM)'
# [10] = biological target: B1; assay: SPR (Biacore), IL-2Rβ/γ-Fc captured on Protein A chip, 1:1 model
# Protocol: The Protein A sensor chip (GE, Cat #29127556) of the Biacore instrument (Biacore T200, GE) was used to capture IL-2Rβ/γ-Fc, wherein IL-2Rβ/γ-Fc was diluted with 1×HBS-EP to 1 μg/mL, and flowed at a flow rate of 10 μL/min for 30 seconds. […] The Biacore instrument (Biacore X100, GE) was used to detect the reaction in real time, to obtain association and dissociation curves. After each cycle of dissociation was completed, the chip was washed and regenerated with 10 mM Gly-HCl pH 1.5.
Binder,relative biological activity (CTLL2 cell proliferation) [1] [%],EC50 (CTLL2 cell proliferation) [2] [nM],relative biological activity (CTLL2 cell proliferation) [2] [%],EC50 (Mo7e cell proliferation) [3] [nM],relative biological activity (Mo7e cell proliferation) [3] [%],EC50 (STAT5 phosphorylation in CTLL2 cells) [4] [nM],relative biological activity (STAT5 phosphorylation in CTLL2 cells) [4] [%],EC50 (STAT5 phosphorylation in human Treg cells) [5] [nM],relative biological activity (STAT5 phosphorylation in human Treg cells) [5] [%],EC50 (STAT5 phosphorylation in human CD8+T cells) [6] [nM],relative activity (STAT5 phosphorylation in human CD8+T cells) [6] [%],EC50 (STAT5 phosphorylation in human NK cells) [7] [nM],relative activity (STAT5 phosphorylation in human NK cells) [7] [%],EC50 [8] [nM],Kd [9] [nM],Kd [10] [nM],koff [10] [s⁻¹],kon [10] [M⁻¹ s⁻¹]
B1,100,0.053,100,2.44,100,0.01,100,0.00046,100,2.32,100,0.48,100,0.5,7.83,–,–,–
"IL-2Rβ/γ-Fc heterodimer (IL-2Rβ-Fc-hole with IL-2Rγ-Fc-knob) (Fc fusion, Co-expressed in HEK293 cells and purified with Protein A and Superdex 200) chain 1: AVNGTSQFTCFYNSRANISCVWSQDGALQDTSCQVHAWPDRRRWNQTCELLPVSQASWACNLILGAPDSQKLTTVDIVTLRVLCREGVRWRVMAIQDFKPFENLRLMAPISLQVVHVETHRCNISWEISQASHYFERHLEFEARTLSPGHTWEEAPLLTLKQKQEWICLETLTPDTQYEFQVRVKPLQGEFTTWSPWSQPLAFRTKPAALGKDTGAQ[human IgG1 Fc with changes not spelt out] chain 2: LNTTILTPNGNEDTTADFFLTTMPTDSLSVSTLPLPEVQCFVFNVEYMNCTWNSSSEPQPTNLTLHYWYKNSDNDKVQKCSHYLFSEEITSGCQLQKKEIHLYQTFVVQLQDPREPRRQATQMLKLQNLVIPWAPENLTLHKLSESQLELNWNNRFLNHCLEHLVQYRTDWDHSWTEQSVDYRHKFSLPSVDGQKRYTFRVRSRFNPLCGSAQHWSEWSHPIHWGSNTSKENPFLFALEAGAQ[human IgG1 Fc with changes not spelt out]",–,–,–,–,–,–,–,–,–,–,–,–,–,–,–,0.257,0.00024,936000
